# According to the supplement of paper PMC8728848:
# Some of the results follow.
# Legend:
# Test in all cases: glycan array binding signal (z-score within array); higher = stronger binding
# Details in all cases: glycan notation: IUPAC condensed, linker removed
# [1] = target: Man(a1-3)[Man(a1-6)]Man(a1-6)[Man(a1-3)]Man
# How it was run: (§1)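 The binding signal is a Z-score computed within each array. Data were drawn from 3228 arrays in the Consortium for Functional Glycomics database, restricted to those with a known protein sequence. Scores were averaged over arrays of the same protein sequence at different concentrations or buffers, and over linkers, and negative values can be taken as non-binding.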
# [2] = target: Man(a1-3)[Man(a1-6)]Man(a1-6)[Man(a1-3)]Man(b1-4)GlcNAc(b1-4)GlcNAc
# How it was run: as §1
# [3] = target: Man(a1-3)[Man(a1-6)]Man(b1-4)GlcNAc(b1-4)GlcNAc
# How it was run: as §1
# [4] = target: Man(a1-3)[Man(a1-6)]Man(b1-4)GlcNAc(b1-4)[Fuc(a1-6)]GlcNAc
# How it was run: as §1
# Man(a1-6)Man = target: Man(a1-6)Man
# How it was run: as §1
# Man(b1-4)GlcNAc = target: Man(b1-4)GlcNAc
# How it was run: as §1
# MurNAc(b1-4)GlcNAc = target: MurNAc(b1-4)GlcNAc
# How it was run: as §1
# Neu5Ac(a2-3)Gal = target: Neu5Ac(a2-3)Gal
# How it was run: as §1
# [5] = target: Neu5Ac(a2-3)Gal(b1-3)GalNAc
# How it was run: as §1
# [6] = target: Neu5Ac(a2-3)Gal(b1-3)GalNAc(b1-3)Gal(a1-4)Gal(b1-4)Glc
# How it was run: as §1
# [7] = target: Neu5Ac(a2-3)Gal(b1-3)GalNAc(b1-4)[Neu5Ac(a2-3)]Gal(b1-4)Glc
# How it was run: as §1
# [8] = target: Neu5Ac(a2-3)Gal(b1-3)GalNAc(b1-4)[Neu5Ac(a2-8)Neu5Ac(a2-3)]Gal(b1-4)Glc
# How it was run: as §1
# [9] = target: Neu5Ac(a2-3)Gal(b1-3)GalNAc6S
# How it was run: as §1
# [10] = target: Neu5Ac(a2-3)Gal(b1-3)GlcNAc
# How it was run: as §1
# [11] = target: Neu5Ac(a2-3)Gal(b1-3)GlcNAc(b1-2)Man
# How it was run: as §1
# [12] = target: Neu5Ac(a2-3)Gal(b1-3)GlcNAc(b1-2)Man(a1-3)[GlcNAc(b1-4)][Neu5Ac(a2-3)Gal(b1-3)GlcNAc(b1-2)Man(a1-6)]Man(b1-4)GlcNAc(b1-4)GlcNAc
# How it was run: as §1
# [13] = target: Neu5Ac(a2-3)Gal(b1-3)GlcNAc(b1-2)Man(a1-3)[Neu5Ac(a2-3)Gal(b1-3)GlcNAc(b1-2)Man(a1-6)]Man(b1-4)GlcNAc(b1-4)GlcNAc
# How it was run: as §1
# [14] = target: Neu5Ac(a2-3)Gal(b1-3)GlcNAc(b1-3)Gal(b1-3)GlcNAc
# How it was run: as §1
# [15] = target: Neu5Ac(a2-3)Gal(b1-3)GlcNAc(b1-3)Gal(b1-4)GlcNAc
# How it was run: as §1
# [16] = target: Neu5Ac(a2-3)Gal(b1-3)GlcNAc(b1-3)GalNAc
# How it was run: as §1
# [17] = target: Neu5Ac(a2-3)Gal(b1-3)GlcNAc(b1-4)Gal(b1-4)Glc
# How it was run: as §1
# [18] = target: Neu5Ac(a2-3)Gal(b1-3)GlcNAc(b1-6)GalNAc
# How it was run: as §1
# [19] = target: Neu5Ac(a2-3)Gal(b1-3)GlcNAc6S
# How it was run: as §1
# [20] = target: Neu5Ac(a2-3)Gal(b1-3)[Fuc(a1-4)]GlcNAc
# How it was run: as §1
# [21] = target: Neu5Ac(a2-3)Gal(b1-3)[Fuc(a1-4)]GlcNAc(b1-3)Gal(b1-3)[Fuc(a1-4)]GlcNAc
# How it was run: as §1
# [22] = target: Neu5Ac(a2-3)Gal(b1-3)[Fuc(a1-4)]GlcNAc(b1-3)Gal(b1-4)[Fuc(a1-3)]GlcNAc
# How it was run: as §1
# [23] = target: Neu5Ac(a2-3)Gal(b1-3)[GlcNAc(b1-6)]GalNAc
# How it was run: as §1
# [24] = target: Neu5Ac(a2-3)Gal(b1-3)[Neu5Ac(a2-6)]GalNAc
# How it was run: as §1
# [25] = target: Neu5Ac(a2-3)Gal(b1-3)[Neu5Ac(a2-6)]GlcNAc(b1-3)[Fuc(a1-3)[Gal(b1-4)]GlcNAc(b1-6)]Gal(b1-4)Glc
# How it was run: as §1
# [26] = target: Neu5Ac(a2-3)Gal(b1-3)]Neu5Ac(a2-3)Gal(b1-4)]GlcNAc
# How it was run: as §1
# Neu5Ac(a2-3)Gal(b1-4)Glc = target: Neu5Ac(a2-3)Gal(b1-4)Glc
# How it was run: as §1
# [27] = target: Neu5Ac(a2-3)Gal(b1-4)GlcNAc
# How it was run: as §1
# [28] = target: Neu5Ac(a2-3)Gal(b1-4)GlcNAc(b1-2)Man
# How it was run: as §1
# [29] = target: Neu5Ac(a2-3)Gal(b1-4)GlcNAc(b1-2)Man(a1-3)[GlcNAc(b1-4)][Neu5Ac(a2-3)Gal(b1-4)GlcNAc(b1-2)Man(a1-6)]Man(b1-4)GlcNAc(b1-4)GlcNAc
# How it was run: as §1
# [30] = target: Neu5Ac(a2-3)Gal(b1-4)GlcNAc(b1-2)Man(a1-3)[Neu5Ac(a2-3)Gal(b1-4)GlcNAc(b1-2)Man(a1-6)]Man(b1-4)GlcNAc(b1-4)GlcNAc
# How it was run: as §1
# [31] = target: Neu5Ac(a2-3)Gal(b1-4)GlcNAc(b1-2)Man(a1-3)[Neu5Ac(a2-3)Gal(b1-4)GlcNAc(b1-2)Man(a1-6)]Man(b1-4)GlcNAc(b1-4)[Fuc(a1-6)]GlcNAc
# How it was run: as §1
# [32] = target: Neu5Ac(a2-3)Gal(b1-4)GlcNAc(b1-2)Man(a1-3)[Neu5Ac(a2-6)Gal(b1-4)GlcNAc(b1-2)Man(a1-6)]Man(b1-4)GlcNAc(b1-4)GlcNAc
# How it was run: as §1
# [33] = target: Neu5Ac(a2-3)Gal(b1-4)GlcNAc(b1-2)[Neu5Ac(a2-3)Gal(b1-4)GlcNAc(b1-4)]Man(a1-3)[GlcNAc(b1-4)][Neu5Ac(a2-3)Gal(b1-4)GlcNAc(b1-2)[Neu5Ac(a2-3)Gal(b1-4)GlcNAc(b1-6)]Man(a1-6)]Man(b1-4)GlcNAc(b1-4)GlcNAc
# How it was run: as §1
binder,measurement,setting,value
PX9937D-bvu-500-26-500 (Bacteroides vulgatus) (protein) DPVSDITDLNYWKTPEQFDSFVFGLHSRFRSHSWNMFLLGEARSDVFGGIPFGGEATQGMERFPYNTLNAENPGISGFGDLYQNINQMNLFISRTLHTDVLTESARNYYLGQVYGLRAYYMYQLYRSWGDVVFTEEPSLGFEVGKLAKAATPAAEIFEQVKKDIESSLSYFGSDYTIKEKKSLWSKAATLMLKADVYLWSAHRDGGEGDARTAKNALVDIQNNISRSNLDLMDTYQGVFAYDNKGNKEIIFTIHNELFEYNLWNGNNDLFPQADYLGKFYNADGTLINTSVENNFGIMRLMVKLENFKKFLPGDTRRDVTLKDVYNKVENGKLELVGVYPHKYWGVMNGSTRVRCDDYPIYRYSDLLLMLAEAKVLLGEDPATEINRVRRRAFGDAYDASTVGFPNQEVDKRPADAVLQERLFEFMLEGKRWYDLRRFGDSYVLDYTPAEPARLLWPINQGALTNNPLLKQTVGY,glycan array binding signal (z-score),[1],0.317
same,glycan array binding signal (z-score),[2],-0.09
same,glycan array binding signal (z-score),[3],-0.209
same,glycan array binding signal (z-score),[4],-0.415
same,glycan array binding signal (z-score),Man(a1-6)Man,-0.097
same,glycan array binding signal (z-score),Man(b1-4)GlcNAc,-0.517
same,glycan array binding signal (z-score),MurNAc(b1-4)GlcNAc,-0.509
same,glycan array binding signal (z-score),Neu5Ac(a2-3)Gal,-0.084
same,glycan array binding signal (z-score),[5],-0.219
same,glycan array binding signal (z-score),[6],0.014
same,glycan array binding signal (z-score),[7],-0.308
same,glycan array binding signal (z-score),[8],-0.054
same,glycan array binding signal (z-score),[9],-0.17
same,glycan array binding signal (z-score),[10],-0.426
same,glycan array binding signal (z-score),[11],0.155
same,glycan array binding signal (z-score),[12],-0.127
same,glycan array binding signal (z-score),[13],0.349
same,glycan array binding signal (z-score),[14],-0.452
same,glycan array binding signal (z-score),[15],-0.047
same,glycan array binding signal (z-score),[16],-0.295
same,glycan array binding signal (z-score),[17],0.237
same,glycan array binding signal (z-score),[18],-0.392
same,glycan array binding signal (z-score),[19],-0.159
same,glycan array binding signal (z-score),[20],-0.323
same,glycan array binding signal (z-score),[21],-0.345
same,glycan array binding signal (z-score),[22],-0.36
same,glycan array binding signal (z-score),[23],-0.595
same,glycan array binding signal (z-score),[24],-0.336
same,glycan array binding signal (z-score),[25],-0.318
same,glycan array binding signal (z-score),[26],-0.42
same,glycan array binding signal (z-score),Neu5Ac(a2-3)Gal(b1-4)Glc,-0.033
same,glycan array binding signal (z-score),[27],0.038
same,glycan array binding signal (z-score),[28],-0.574
same,glycan array binding signal (z-score),[29],-0.229
same,glycan array binding signal (z-score),[30],-0.161
same,glycan array binding signal (z-score),[31],-0.13
same,glycan array binding signal (z-score),[32],-0.324
same,glycan array binding signal (z-score),[33],-0.306
